Results: the RNAGym collection of RNA variant scans (doi:10.7554/elife.90254)
Read counts are not given, so values of variants with three or more changes are uncertain.

B1: OR4K15 (parent)
chain: GUUAACGGUCAUAGGCCAUGGAAACUAGGAGCACCAUUUCGCUGCCAGUGAAGAAAUGAACAAAGAAAAUCUGGGCCAGGCAGGCAUCAAAAGAAAUAGUCUUGCGCUCAACCAGAAAGUCUGUAAUCAUUUUAAGGGUA

Variants of: B1
Experiment: self-cleavage, relative activity (ratio to wild type); higher = more cleavage; in vitro, sequencing; the parent is a self-cleaving ribozyme

Variant | self-cleavage
A23G A24C U37C A92G | 0.84
A18U U19A C45U A82U U100C | 0.32
A51G A62G C88U | 1.47
U2C A68U U87C | 1.01
U2C U38C A56C U132C | 0.62
A86G A110G C112U | 0.01
G31U A63G A68G | 1.59
G20U G41A A64G U120C | 1.22
A36G U103A A118G | 0.73
U2C U57C U102C U103C | 0.16
U26A A33U A64G A66G A67G | 0.37
A68U U132G U133C | 1.88
A52G A59G U103C A116G A140C | 0.15
A66U A69G A90G U102A | 0.06
A54G A94U C121U | 2.55
C25A A56G A86G A92G A129G | 0.75
C46U A95G U103C A125G | 1.16
U49C A56G G75A | 0.16
A24G A52G A56G A78G U108C | 0.06
A11U A55G A92G | 1.82
U2C U100C U103A | 1.02
A22G A86G U108C | 0.02
U38C A54G U72A | 0.17
A62G A68G A91G A92G U108C A116G | 0.05

Variant | self-cleavage
U3C U39C G50A U57C A91G A110G | 0.09
C6A A18G G119C U130A | 0.68
A60G A66G A95G | 1.36
A62U U102A A116U | 0.16
A54G A55G A134G | 0.94
C42A A59G A64G U102C A118G U122C | 1.42
G8U A13G A52G A129G | 1.2
A18U U19C U57C A67G A114G | 0.3
A11G U70C U100A | 0.24
U26A A33G A90G C113U | 0.1
A30G A95G A129U | 0.89
A11G A23U A60G A89G A118G | 0.71
U39C A67U U72A A82G A117G | 0.19
G73A U102C A117G U120C | 0.01
U49C U70C A118G A140G | 0.56
U38C U39C A56G | 1.9
U39A C61U U102C | 1.62
U19C A54G A68G A78U A82G A129G | 0.04
U49C A82U A91C A95G U97C | 0.04
U12A A30G A95G U127A | 2.61
U2C A18G A78G | 0.48
A52G A78G A126G A134G G137A | 0.06
A67G A69G A116G A126G | 0.55
A33G A47G A60G A95G U108A | 0.01

Variant | self-cleavage
U2C A54U A92G U102C | 1.34
C32U G83C U131C | 0
A33G U49C A82G A98G | 0
C10U A89G A90G A96G U132C | 0.4
U2C U3C A30G G44A A82G | 0.81
U49C A51G A96G U122C | 1.83
A60G A78G U122C | 0.27
U3C A22G A91G A114G | 0.14
U43C A125G U139A | 0.46
U38C A64G U108C | 0.03
U49C A52G U70C A95C | 0.31
U2A G41A A60G A82U | 0.31
U37C U43C A89G A126C | 0.56
U37C U43C A68G A69G A116G | 0.29
U49A A69G U133A | 0.72
A22G A56G A62G U102C | 1.06
A36U A51G A82G A90G | 0.29
A55G A64G A94G A134U U139C | 1.52
C6U U103C U127A | 1.73
A11U U72C U131A | 0.22
A24G C81U U103G | 0
A67G U103C A117G | 0.58
A63G A67G U133C | 0.98
U12C A114G A116G | 0.05

Variant | self-cleavage
U43C A117C A126G U131C | 0.16
A23G A55G U57C A98G | 0.39
A27U A30G U49A A68U U72A C81U | 0.21
A27G U102C U122C | 2.15
A47U C77A U108C | 0
A66G A86G U102C | 1.73
U37G U43A U87C G136A | 1.55
U9A A11C U131A | 1.49
A55G A59U U100C A117G A125G | 1.13
A33G A52G A68U | 0.75
U39C A82G A116G | 0.16
A95U U103G A117G | 0
G48U A56G A69G | 1.24
A13U G83A A117U | 0.96
G14A U43C C77U | 1.37
U49C A56G A64G A86G A126G | 0.73
U38C A52G A60G | 0.68
C42U A55U U100A A118G | 0.66
U2C U3A A36G U108C U127C | 0.01
A89G A114G A134U | 0.44
A24G U102C U130C | 1.38
U9C U37C A69G U70C U124A U130G | 0.1
U12C A13G U130C | 1.22
A36U U38C A96G | 1.3

Variant | self-cleavage
A18G A33C U100C U103C | 2.08
A47G A56G A118G | 0.2
A11G A63U A67G A68G | 2.09
U39C A60G U122C | 0.31
A51C A90G A98U U132A | 1.36
A5G A33G U130C | 0.33
A27U A51G A62G | 1.02
U49C U100C G104A | 0.03
A18G A47G U70C | 0.49
A23G A54G A68G A118G | 0.59
U100A U124C A129G | 0.1
U39C A62G A67G | 1.21
A47G A63U A111G | 0.01
A33U A54G A69G U127C | 0.6
A59G A94G A95G | 0.74
A27G A116G U130G A134G | 0.41
U37C A92G U103C | 1.31
A51G U100C U108A A116G | 0
U2C A47U A59U | 0.12
A55G U87A A98G | 0.08
U3C C40U A63G A89G | 1.29
U72C A96G A118U | 0.05
A51U G80A U130C | 0.15
A24G A91G A114G | 0.29

Variant | self-cleavage
A51U A56G A64G A96G | 1.62
A13U A52G A95G U139C | 1.45
A18U A33C U102A | 0.7
A5U A47G U72C A86U A94U A110G | 0.05
A78G A110G U130C | 0.02
A47G A82U A86U | 0.27
G44A A56G U122C | 1.91
A33U U49C U139C | 0.99
A23G A36U A89G | 0.82
U19C A33G A69G | 0.47
U26C A52G U108A | 0.02
A24C A56G A92U U100C | 1.52
U2C C85A A117C | 0.48
U2C U19C A27G G104A | 0.09
C6U A56G A98G | 0.26
G7U A51G A59G | 1.01
U38C U87C U132A | 1.73
A51G A62U A63G A66U U87C C105U A110G | 0.05
U2C U26C U70A U108C C112A | 0.02
A54G A86U A98U | 2
A5G A96U G99A | 1.16
U39C A47U A51G A94C | 0.45
U38A C46U U72A | 0.37
A30G U39C A91G A126G | 0.63

Variant | self-cleavage
U9C U38C G44U | 1.41
C16U A23G A111G U133C A140G | 0.02
A36G G75A U139C | 0.13
A56U A64G U72C U122C A140U | 0.14
A23G A86G U120C U133C | 1.84
U12A A92G C128U | 0.85
A5G U37C A135U | 0.83
A59G A90G U131C | 1.21
U26A A78C C85U U108C A129G | 0.01
U2A A63G U130A | 0.18
U87A A94G U122C | 1.85
C40A A91G U97C U103C A125G | 0.09
A30U U43C A95G A116G | 0.4
A78G G104A A126G U131C | 0
U70C A78U A116U | 0.08
A78U U102C U120C A129C | 0.55
A30G A82G A86G U131C | 0.14
A62G A64G G106A A117U | 0.03
A24G G83A A140U | 0.63
G58A A59U A67G | 0.68
A54G U103C A126G U127C | 0.2
U37C A68G U124C A125G | 0.63
A62G A68C A114G | 0.29
